Data as given in paper PMC12619835.
These are yes or no findings as the source states them, for the method shown. For some assays here: Binding seen in cells or lysates may run through a third protein. Some binding calls cover weakened binding; strength is not graded here. Values belong to the substance of their own block, whether it stands above or below them.

Sequences of proteins named here, by UniProt entry; tags and fusion partners are left off.
UniProt P56693: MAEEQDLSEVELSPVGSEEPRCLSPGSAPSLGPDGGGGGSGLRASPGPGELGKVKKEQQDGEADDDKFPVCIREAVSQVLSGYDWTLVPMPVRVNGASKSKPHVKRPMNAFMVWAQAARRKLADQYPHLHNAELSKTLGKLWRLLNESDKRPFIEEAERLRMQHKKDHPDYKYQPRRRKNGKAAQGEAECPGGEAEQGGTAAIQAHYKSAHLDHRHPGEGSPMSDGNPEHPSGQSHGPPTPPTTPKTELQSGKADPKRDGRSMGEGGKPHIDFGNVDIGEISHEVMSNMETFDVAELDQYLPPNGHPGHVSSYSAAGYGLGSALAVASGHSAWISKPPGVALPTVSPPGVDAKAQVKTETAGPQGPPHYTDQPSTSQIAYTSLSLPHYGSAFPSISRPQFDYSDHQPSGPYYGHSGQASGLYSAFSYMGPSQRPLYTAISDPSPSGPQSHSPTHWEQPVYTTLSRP
UniProt P10242: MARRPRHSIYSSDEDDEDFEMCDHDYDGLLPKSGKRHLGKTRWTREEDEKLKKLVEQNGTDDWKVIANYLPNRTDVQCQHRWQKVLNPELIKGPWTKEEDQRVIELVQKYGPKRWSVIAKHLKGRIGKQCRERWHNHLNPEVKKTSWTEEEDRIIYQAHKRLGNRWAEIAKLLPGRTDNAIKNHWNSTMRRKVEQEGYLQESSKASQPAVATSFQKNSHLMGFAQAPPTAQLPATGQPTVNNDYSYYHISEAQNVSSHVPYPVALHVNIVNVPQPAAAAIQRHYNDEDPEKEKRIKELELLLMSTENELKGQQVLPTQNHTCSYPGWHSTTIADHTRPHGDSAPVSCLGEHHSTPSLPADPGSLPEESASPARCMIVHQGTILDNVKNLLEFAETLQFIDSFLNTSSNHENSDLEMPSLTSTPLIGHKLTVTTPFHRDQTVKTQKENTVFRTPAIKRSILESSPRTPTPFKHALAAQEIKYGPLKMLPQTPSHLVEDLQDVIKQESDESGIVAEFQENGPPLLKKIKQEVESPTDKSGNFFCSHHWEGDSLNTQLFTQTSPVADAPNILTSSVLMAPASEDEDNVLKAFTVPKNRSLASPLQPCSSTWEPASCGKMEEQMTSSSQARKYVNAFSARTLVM
UniProt O43474: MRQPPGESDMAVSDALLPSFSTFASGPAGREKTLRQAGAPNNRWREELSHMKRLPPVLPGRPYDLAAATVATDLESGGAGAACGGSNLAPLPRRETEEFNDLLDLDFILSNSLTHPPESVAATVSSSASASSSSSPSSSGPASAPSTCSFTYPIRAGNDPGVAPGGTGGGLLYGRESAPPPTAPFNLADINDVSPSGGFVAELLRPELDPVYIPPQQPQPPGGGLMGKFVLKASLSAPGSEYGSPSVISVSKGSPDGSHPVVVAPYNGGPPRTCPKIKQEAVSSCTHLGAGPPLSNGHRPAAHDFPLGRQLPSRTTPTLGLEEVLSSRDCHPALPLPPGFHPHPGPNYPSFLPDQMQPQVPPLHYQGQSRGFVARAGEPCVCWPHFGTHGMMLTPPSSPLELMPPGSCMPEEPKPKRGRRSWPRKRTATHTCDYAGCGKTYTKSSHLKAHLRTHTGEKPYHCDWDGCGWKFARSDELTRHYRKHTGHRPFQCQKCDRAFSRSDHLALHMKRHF
UniProt Q13887: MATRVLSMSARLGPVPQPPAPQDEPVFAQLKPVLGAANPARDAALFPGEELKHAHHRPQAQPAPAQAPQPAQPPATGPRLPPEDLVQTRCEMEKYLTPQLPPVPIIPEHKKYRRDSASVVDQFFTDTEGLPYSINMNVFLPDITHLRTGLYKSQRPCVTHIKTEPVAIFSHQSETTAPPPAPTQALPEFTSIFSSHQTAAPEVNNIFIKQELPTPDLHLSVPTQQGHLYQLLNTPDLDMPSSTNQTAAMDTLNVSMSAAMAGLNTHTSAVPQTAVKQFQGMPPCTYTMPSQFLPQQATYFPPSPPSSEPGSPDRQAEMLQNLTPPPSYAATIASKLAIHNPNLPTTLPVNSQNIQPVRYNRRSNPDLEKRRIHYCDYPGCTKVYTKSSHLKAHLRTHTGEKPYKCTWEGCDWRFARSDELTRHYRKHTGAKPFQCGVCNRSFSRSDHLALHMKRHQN
UniProt Q9Y265: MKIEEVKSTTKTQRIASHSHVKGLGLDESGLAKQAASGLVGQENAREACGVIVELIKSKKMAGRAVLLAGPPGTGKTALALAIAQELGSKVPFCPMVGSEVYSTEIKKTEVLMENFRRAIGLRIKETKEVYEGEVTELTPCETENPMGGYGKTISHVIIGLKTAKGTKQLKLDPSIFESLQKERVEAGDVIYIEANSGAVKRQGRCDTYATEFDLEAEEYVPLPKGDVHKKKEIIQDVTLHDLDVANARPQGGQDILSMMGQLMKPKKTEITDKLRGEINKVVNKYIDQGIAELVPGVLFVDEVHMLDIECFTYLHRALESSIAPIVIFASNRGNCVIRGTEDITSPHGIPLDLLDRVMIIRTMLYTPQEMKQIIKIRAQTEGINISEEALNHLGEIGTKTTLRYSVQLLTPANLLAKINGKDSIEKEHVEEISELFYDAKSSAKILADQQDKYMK
UniProt Q6ZRS2: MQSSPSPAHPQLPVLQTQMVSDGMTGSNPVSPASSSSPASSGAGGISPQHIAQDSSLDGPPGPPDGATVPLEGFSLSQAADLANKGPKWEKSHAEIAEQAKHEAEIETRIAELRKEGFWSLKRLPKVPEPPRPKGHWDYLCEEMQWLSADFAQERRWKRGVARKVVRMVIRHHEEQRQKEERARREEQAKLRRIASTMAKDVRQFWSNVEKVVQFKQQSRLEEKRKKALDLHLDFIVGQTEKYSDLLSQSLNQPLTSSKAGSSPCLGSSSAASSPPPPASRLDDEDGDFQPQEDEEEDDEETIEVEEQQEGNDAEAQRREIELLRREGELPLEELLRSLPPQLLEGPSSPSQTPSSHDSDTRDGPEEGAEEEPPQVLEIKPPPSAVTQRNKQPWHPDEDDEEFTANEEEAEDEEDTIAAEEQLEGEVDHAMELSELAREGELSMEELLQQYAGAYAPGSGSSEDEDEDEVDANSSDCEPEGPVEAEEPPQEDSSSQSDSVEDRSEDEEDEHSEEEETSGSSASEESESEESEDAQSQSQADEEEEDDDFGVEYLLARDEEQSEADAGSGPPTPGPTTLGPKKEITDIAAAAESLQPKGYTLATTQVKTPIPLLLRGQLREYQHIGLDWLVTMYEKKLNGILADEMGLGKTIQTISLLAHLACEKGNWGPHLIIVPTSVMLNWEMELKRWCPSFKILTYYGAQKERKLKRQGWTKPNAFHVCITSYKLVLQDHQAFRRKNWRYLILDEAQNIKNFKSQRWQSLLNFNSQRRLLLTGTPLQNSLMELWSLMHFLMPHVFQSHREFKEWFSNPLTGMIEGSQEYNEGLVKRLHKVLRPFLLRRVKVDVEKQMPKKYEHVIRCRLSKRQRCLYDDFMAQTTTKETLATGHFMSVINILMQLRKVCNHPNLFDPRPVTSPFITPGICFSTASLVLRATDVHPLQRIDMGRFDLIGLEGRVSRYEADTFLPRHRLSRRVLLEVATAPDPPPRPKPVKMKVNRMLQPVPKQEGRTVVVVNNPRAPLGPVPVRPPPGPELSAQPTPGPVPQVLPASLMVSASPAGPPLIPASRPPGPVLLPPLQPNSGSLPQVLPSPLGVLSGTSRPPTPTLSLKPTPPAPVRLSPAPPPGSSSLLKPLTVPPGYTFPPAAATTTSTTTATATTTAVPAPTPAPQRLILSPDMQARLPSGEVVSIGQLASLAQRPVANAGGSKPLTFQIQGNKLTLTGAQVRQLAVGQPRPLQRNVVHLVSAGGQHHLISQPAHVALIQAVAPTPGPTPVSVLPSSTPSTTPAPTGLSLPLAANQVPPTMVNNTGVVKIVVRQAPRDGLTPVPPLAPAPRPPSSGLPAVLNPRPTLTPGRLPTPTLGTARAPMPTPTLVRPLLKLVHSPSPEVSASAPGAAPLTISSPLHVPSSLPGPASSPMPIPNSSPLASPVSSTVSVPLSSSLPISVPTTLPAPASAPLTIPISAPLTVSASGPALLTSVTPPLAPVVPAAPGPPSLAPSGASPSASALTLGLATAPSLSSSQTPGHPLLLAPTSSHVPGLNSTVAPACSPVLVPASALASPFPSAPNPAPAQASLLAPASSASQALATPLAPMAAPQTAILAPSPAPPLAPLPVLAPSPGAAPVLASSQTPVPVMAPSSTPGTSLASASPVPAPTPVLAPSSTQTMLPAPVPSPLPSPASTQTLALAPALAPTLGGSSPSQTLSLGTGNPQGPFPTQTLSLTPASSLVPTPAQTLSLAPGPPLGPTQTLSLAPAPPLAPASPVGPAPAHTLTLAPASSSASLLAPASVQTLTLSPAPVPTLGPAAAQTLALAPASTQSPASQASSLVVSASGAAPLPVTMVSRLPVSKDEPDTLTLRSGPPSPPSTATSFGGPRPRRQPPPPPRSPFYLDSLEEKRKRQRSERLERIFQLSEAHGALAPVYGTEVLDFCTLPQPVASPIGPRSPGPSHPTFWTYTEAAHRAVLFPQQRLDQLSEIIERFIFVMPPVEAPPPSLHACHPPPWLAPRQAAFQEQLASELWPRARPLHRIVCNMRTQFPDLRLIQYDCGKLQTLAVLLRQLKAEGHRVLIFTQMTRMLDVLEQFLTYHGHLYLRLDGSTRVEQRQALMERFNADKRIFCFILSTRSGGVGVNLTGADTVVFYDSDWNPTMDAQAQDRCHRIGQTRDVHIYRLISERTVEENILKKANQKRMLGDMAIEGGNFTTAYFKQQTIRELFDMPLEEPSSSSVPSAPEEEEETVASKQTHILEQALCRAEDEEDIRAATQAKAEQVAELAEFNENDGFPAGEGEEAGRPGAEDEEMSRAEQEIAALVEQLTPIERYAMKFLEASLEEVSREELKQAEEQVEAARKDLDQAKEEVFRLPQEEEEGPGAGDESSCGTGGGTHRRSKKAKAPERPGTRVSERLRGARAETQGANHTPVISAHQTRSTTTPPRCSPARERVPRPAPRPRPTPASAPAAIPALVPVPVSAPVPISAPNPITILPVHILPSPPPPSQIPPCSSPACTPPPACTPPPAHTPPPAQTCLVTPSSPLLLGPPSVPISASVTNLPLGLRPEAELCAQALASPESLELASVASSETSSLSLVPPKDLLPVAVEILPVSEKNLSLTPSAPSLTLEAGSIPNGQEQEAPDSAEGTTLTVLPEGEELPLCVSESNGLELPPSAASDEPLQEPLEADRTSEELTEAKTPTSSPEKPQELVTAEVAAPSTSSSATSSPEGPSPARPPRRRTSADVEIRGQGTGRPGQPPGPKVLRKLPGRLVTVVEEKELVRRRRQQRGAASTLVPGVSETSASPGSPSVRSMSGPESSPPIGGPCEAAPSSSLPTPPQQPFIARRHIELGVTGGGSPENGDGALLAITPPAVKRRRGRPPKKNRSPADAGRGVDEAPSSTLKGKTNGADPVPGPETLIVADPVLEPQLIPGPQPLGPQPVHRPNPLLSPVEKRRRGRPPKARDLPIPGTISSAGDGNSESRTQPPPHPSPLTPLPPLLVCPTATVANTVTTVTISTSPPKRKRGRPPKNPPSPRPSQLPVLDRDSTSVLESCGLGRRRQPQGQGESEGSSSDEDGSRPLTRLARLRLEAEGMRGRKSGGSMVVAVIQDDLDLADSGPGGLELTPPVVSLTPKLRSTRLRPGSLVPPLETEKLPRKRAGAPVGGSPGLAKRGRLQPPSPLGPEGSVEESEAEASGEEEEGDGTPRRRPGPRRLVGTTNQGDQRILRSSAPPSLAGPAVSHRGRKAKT
UniProt Q92993: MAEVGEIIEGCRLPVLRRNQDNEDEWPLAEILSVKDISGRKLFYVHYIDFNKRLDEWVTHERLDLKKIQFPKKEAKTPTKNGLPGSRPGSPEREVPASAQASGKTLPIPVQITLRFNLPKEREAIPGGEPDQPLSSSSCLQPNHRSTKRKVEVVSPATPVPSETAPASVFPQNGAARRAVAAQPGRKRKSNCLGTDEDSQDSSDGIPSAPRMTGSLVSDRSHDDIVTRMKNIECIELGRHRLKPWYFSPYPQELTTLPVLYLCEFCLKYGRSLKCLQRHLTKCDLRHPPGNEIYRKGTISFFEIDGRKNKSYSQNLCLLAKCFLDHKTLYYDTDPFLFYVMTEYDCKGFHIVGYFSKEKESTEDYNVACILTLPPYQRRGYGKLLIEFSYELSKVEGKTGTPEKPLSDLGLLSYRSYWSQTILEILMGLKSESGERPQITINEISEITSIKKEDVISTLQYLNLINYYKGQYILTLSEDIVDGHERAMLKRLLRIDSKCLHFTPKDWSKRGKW

Experiments:
SOX10 = SOX10 (UniProt P56693); assay: co-IP; HEK293T transfected with a FLAG-tagged cDNA, N-terminal HA-tagged RUVBL1 and C-terminal HA-tagged RUVBL2; nuclear lysates on M2 FLAG agarose overnight, washes with 150-350 mM NaCl, 4 °C; HA immunoblot; in some experiments CB-6644 for 4 h before the IP and in lysis and wash buffers
MYB = MYB (UniProt P10242); assay: as above
KLF4 = KLF4 (UniProt O43474); assay: as above
POU2F3 = molecular target: T1, POU2F3 (UniProt Q9UKI9); assay: as above
T1 sequence: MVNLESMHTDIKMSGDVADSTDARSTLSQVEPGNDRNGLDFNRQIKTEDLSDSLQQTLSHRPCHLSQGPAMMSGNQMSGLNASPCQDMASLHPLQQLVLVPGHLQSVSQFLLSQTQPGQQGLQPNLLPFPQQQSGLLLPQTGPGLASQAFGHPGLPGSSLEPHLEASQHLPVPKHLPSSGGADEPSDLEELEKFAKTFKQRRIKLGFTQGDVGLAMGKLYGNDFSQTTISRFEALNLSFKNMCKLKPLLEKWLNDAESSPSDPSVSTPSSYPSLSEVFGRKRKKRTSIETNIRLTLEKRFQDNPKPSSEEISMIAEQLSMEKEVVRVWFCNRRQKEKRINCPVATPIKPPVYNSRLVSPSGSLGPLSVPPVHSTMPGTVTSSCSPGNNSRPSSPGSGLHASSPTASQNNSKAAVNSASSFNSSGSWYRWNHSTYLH

MYC = MYC (UniProt P01106); assay: as above
[1] = molecular target: recombinant MBP-tagged KLF5 (human) (UniProt Q13887); assay: pull-down; MBP-KLF5 (10 μg) or MBP (5 μg) on amylose resin; 10 μg RUVBL1, 10 μg RUVBL2 or 20 μg RUVBL1/2 hetero-hexamer added for 2 h in 50 mM Na3PO4 pH 7.5, 0.1 mM EDTA, 200 mM NaCl, 1 mM DTT, 5% glycerol; washes with 250 mM NaCl; maltose elution; Western blot; 4 °C; both purified
FLAG-KLF5 (human) = FLAG-KLF5 (human) (UniProt Q13887); assay: co-IP; anti-FLAG co-immunoprecipitation-Western blot of FLAG-KLF5 (FLAG-GFP as negative control); blots for RUVBL1, RUVBL2, RPAP3, SRCAP, TIP60, INO80; cell line not stated

- binding (SOX10): binds
- binding (MYB): binds
- binding (KLF4): no binding
- binding (POU2F3): binds
- binding (MYC): binds
Substance: N-terminal HA-tagged RUVBL1 (from UniProt Q9Y265 1-456)

Substance: RUVBL1 (purified, recombinant, alone) (from UniProt Q9Y265 1-456)
- binding [1]: no binding (tested: 10 μg of RUVBL1 per IP)

- binding (FLAG-KLF5 (human)): no binding
Substance: SRCAP (from UniProt Q6ZRS2 1-3230)

- binding (FLAG-KLF5 (human)): no binding
Substance: TIP60 (from UniProt Q92993 1-513)
